# From PubChem BioAssay (NCI)
#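 These data come from cells grown in 96-well plates and exposed to compound for 48 hours at five concentrations. GI50 is the concentration that inhibits growth by half. TGI: concentration producing complete growth inhibition.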 Activity calls are given as the source filed them.
# System: MDA-MB-468 breast
# Assay: growth of human tumour cells (NCI), 48 h
smiles,measurement,value
O=C(CCCN1CCC2(CC1)C(=O)NCN2c1ccccc1)c1ccc(F)cc1,GI50,inactive
same,TGI,72.3 µM
